The list shows a part of the results.
test system: T1, C. trachomatis L2/434/Bu expressing GFP (CTL2-GFP); design: species or system HeLa; C. trachomatis total inclusion area by high-content imaging, normalised to DMSO; conditions: total inclusion area; 28.5 h, 10 µM; inhibitor
T1 construct: L2/434/Bu GFP intracellular growth in HeLa cells
Method in brief: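 High-content imaging followed the bulk GFP/resorufin measurement: fixed, Hoechst-stained cells were scored for GFP inclusions and host nuclei per well. Total inclusion area and count served as growth proxies, nuclei number as the viability proxy. MIC calculation matched the bulk assay.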

| Structure (SMILES) | % of control remaining |
| --- | --- |
| CN1CCCN(c2nc(-c3cccs3)cn3ccnc23)CC1 [CBK066652] | 82.4816 |
| O=C(CCC1CCCO1)N1CCCC(COc2ccc(F)cc2)C1 (centres unmarked) [CBK282031] | 122.674 |
| Cc1nc[nH]c1CN1CCCN(S(=O)(=O)c2ccc(C(F)(F)F)cc2Cl)CC1 [CBK063035] | 72.8163 |
| O=C(O)c1cccc(NS(=O)(=O)c2cc(C(F)(F)F)cc(C(F)(F)F)c2)c1 [CBK155725] | 92.0481 |
| CCc1cc2c(=O)c(-c3nc4ccccc4n3C)c(C)oc2c(CN2CCOCC2)c1O [CBK262124] | 112.586 |
| Clc1ccc(CNc2ncc(-c3ccc(N4CCOCC4)cc3)n3ccnc23)cc1Cl [CBK091229] | 98.1744 |
| Cc1cc(C)c(Oc2nc(=O)n([C@H]3C[C@@H](O)[C@@H](CO)O3)cc2F)c(C)c1 [CBK201184] | 102.743 |
| CSc1ncc(Cl)c(C(=O)Nc2ccc(S(=O)(=O)N3CCC(Cc4ccccc4)CC3)cc2)n1 [CBK268870] | 100.172 |
| CCOC(=O)c1ccc(Nc2nnc3nc(C)cc(C)n23)cc1 [CBK267600] | 99.239 |
| C[C@@H]1C[C@H](Nc2ccccc2)c2ccccc2N1C(=O)CCC(=O)O [CBK286820] | 118.739 |
| COCc1cc(C)nc2sc(C(N)=O)c(N)c12 [CBK018149] | 59.6488 |
| CCn1c(=O)[nH]c2cc(C(=O)NCCc3ccccc3)ccc2c1=O [CBK265773] | 77.6732 |
| O=C(Cn1c(=O)[nH]c2c(oc3ccccc32)c1=O)Nc1ccccc1 [CBK287818] | 117.715 |
| Cc1ncccc1C(=O)NC(c1ccc(F)c(F)c1)c1nccn1C (centres unmarked) [CBK283809] | 99.4445 |
| CN(CC(O)CN1CCOCC1)C(=O)c1cc2sccc2[nH]1 (centres unmarked) [CBK306437] | 33.8459 |
| CCOc1ccc(OCCC#N)cc1 [CBK015880] | 38.0134 |
| O=C([C@H]1O[C@H](CCN2CCN(c3ccccn3)CC2)CC[C@@H]1O)N1CCCC1 [CBK288730] | 98.3041 |
| CC(=O)NC(CCC(N)=O)C(=O)N1CC2(CCCC2)c2c(F)cccc21 (centres unmarked) [CBK306412] | 45.8231 |
| Cc1cc(NC(=O)c2ccc3c(c2)C(=O)N(CC2CCCO2)C3=O)no1 (centres unmarked) [CBK072998] | 83.2125 |
| CC(C)(C)NCC(O)COc1c(F)cc(Br)cc1F (centres unmarked) [CBK020879C] | 88.2737 |
| Cn1c(=O)n(CC(=O)NC2CC2)c2cccnc21 [CBK104297] | 102.526 |
| Cc1ccccc1-c1ccc(C(=O)NCCc2ccc(S(N)(=O)=O)cc2)c(NCc2cccnc2)n1 [CBK076116] | 104.181 |
| O=C(Nc1ccc(Cc2ccncc2)cc1)c1ccc(CSc2ccc(Cl)cc2)cc1 [CBK262526] | 62.6669 |
| Cc1ccc(C(=O)NCc2ccc(-c3n[nH]cc3C(=O)N(C)Cc3ccccc3)cc2)cc1 [CBK285598] | 102.262 |
| Cc1ccc(Oc2ncccc2[N+](=O)[O-])c(Br)c1 [CBK002822] | 104.323 |
| CCCCc1ccc(-c2ccc3ccc(NC(=O)C(C)C)nc3n2)cc1 [CBK073668] | 111.368 |
| COc1ccc([N+](=O)[O-])cc1NC(=O)c1nc(C)c(C)nc1C(=O)O [CBK103387] | 87.4729 |

| Structure (SMILES) | % of control remaining |
| --- | --- |
| O=C(O)c1cccc(NS(=O)(=O)c2ccc(Cl)c(C(=O)Nc3ccc(Br)cc3)c2)c1 [CBK263241] | 99.9506 |
| OC(Cn1cnc(-c2ccccc2)c1-c1ccccc1)Cn1c2ccccc2c2ccccc21 (centres unmarked) [CBK261416] | 102.58 |
| COc1cc(-c2cc(N3CCN(CCN4CCCC4)CC3)ncn2)cc(OC)c1OC [CBK037841] | 94.0941 |
| Cc1ccc2c(CC(=O)N3CCNCC3c3cnn(C)c3)coc2c1C (centres unmarked) [CBK304271C] | 44.972 |
| C[N+]1(C)CCCC1c1cc(Br)cnc1N (centres unmarked) [CBK217873I] | 96.7047 |
| O=C1CCCN1CCOc1nccnc1-c1ccc(F)cc1 [CBK106895] | 87.9808 |
| O=C(/C=C/c1ccco1)Nc1sc2c(c1C(=O)NCc1ccco1)CCC2 [CBK265616] | 52.6484 |
| CCC(C(=O)Nc1ccccc1C(=O)Nc1c(Cl)cccc1Cl)c1ccccc1 (centres unmarked) [CBK266068] | 87.2304 |
| O=C(c1ccccc1)N1CCC(c2cc3ncccc3[nH]2)CC1 [CBK283385] | 114.417 |
| Nc1ncc(-c2cccnc2)nc1NCc1ccccc1 [CBK063349] | 163.437 |
| Cc1cc2n(n1)C(c1ccc(C(=O)O)cc1)Nc1ccccc1-2 (centres unmarked) [CBK287000] | 97.4641 |
| CC(=O)N1C[C@@H]2C[C@H](C1)c1ccc(NC(=O)c3ccc(C#N)cc3)c(=O)n1C2 [CBK289202] | 98.4956 |
| c1ccc2c(c1)NCC21CCNCC1 [CBK022583] | 66.8812 |
| COc1cc(S(=O)(=O)NCCOc2ccc(C(=O)O)cc2)c(OC)cc1Cl [CBK299825] | 80.8 |
| CSCC[C@H](NC(=O)Nc1ccc(N2CCC(C)CC2)cc1)C(=O)O [CBK286743] | 83.698 |
| c1ccc(OCCCCN2CCCC23CCc2[nH]c4ccccc4c2C3)cc1 (centres unmarked) [CBK092200T] | 67.0491 |
| O=C(NC1CCCCC1)N[C@H]1CO[C@H]2[C@@H]1OC[C@@H]2n1cc(CC2CCCCC2)nn1 [CBK289510] | 104.02 |
| Cn1ccc2cc(-c3cn4ccnc4c(N4CCOCC4)n3)ccc21 [CBK066696] | 79.9078 |
| CCN(CC)CCSc1nc(O)c(-c2ccccc2)c(=O)n1-c1ccccc1 [CBK263335C] | 96.5958 |
| CN1CC(C(=O)NCC(c2ccccc2)N2CCCCCC2)CC1=O (centres unmarked) [CBK282008] | 77.8425 |
| Cc1nc2cc(C(=O)O)ccc2n1CCO [CBK260949] | 105.249 |
| CC(C)(C)c1[nH]c2ncccc2c1CN1CCSCC1 [CBK285340] | 113.516 |
| COc1ccc2cc(/C=C(\C#N)c3nc(-c4cc5ccccc5oc4=O)cs3)c(Cl)nc2c1 [CBK261623] | 95.8533 |
| O=C(c1c(F)cccc1F)N1C2CCC1c1snnc1C2 (centres unmarked) [CBK284990] | 101.728 |
| O=C(NCCc1c[nH]c2ccc(F)cc12)Nc1ccccc1 [CBK269964] | 87.6357 |
| O=S(=O)(c1ccc(I)cc1)n1ccc2c(N3CCNCC3)cncc21 [CBK081326C] | 82.712 |
| CCOC(=O)N1CCC(NS(=O)(=O)Cc2ccccc2)CC1 [CBK045457] | 104.415 |

| Structure (SMILES) | % of control remaining |
| --- | --- |
| Cn1c(=O)n(C)c2cc(CNCc3ccccn3)ccc21 [CBK288118] | 80.5106 |
| COc1ccc(CC(=O)N2CC[C@H]3NC(=O)N(c4ccccc4)C(=O)[C@H]32)cc1 [CBK289278] | 126.919 |
| O=C(C(Cc1ccccc1)N1C(=O)C2CCCCC2C1=O)N1CCN(Cc2ccc3c(c2)OCO3)CC1 (centres unmarked) [CBK264648] | 111.395 |
| N#CC1(NC(=O)CN2CCOC(Cn3cccn3)C2)CCCC1 (centres unmarked) [CBK304911] | 112.162 |
| FC(F)(F)c1cc(/C=C/c2cccs2)n[nH]1 [CBK020924] | 77.2593 |
| CC(C)[C@@H](CO)Nc1nccnc1-c1cccs1 [CBK089024] | 105.371 |
| CC(=O)NC(CSc1cc(C)nc2ccccc12)C(=O)O (centres unmarked) [CBK286755] | 50.3263 |
| Clc1ccc(CN2CCN(c3nccnc3OCCN3CCOCC3)CC2)cc1Cl [CBK082884T] | 87.1326 |
| COc1n[nH]c(CO)c1Cc1c(Cl)cccc1Cl [CBK092283T] | 100.908 |
| CSc1nnc(N(C)S(=O)(=O)c2ccc(C)cc2)s1 [CBK155272] | 91.0426 |
| Fc1ccc(N2CCN(Cc3cccc(OCc4ccccc4)c3)CC2)cc1 [CBK261916] | 90.9959 |
| N#Cc1ccccc1N1CCN(c2cncc(-c3ccc(CO)cc3)n2)CC1 [CBK037383] | 64.7371 |
| CC1CCCC(C)N1CC(O)COCc1ccc2c(c1)OCO2 (centres unmarked) [CBK263134C] | 95.6633 |
| COc1ccc(NC(=O)c2sc(Cl)nc2C)cc1 [CBK057902] | 68.3516 |
| O=C(CCN1CCN(Cc2ccccc2)CC1)Nc1ccc(F)cc1 [CBK264261] | 63.3042 |
| CO[C@@H](C(=O)Nc1cnc(-c2cccc(C)c2)c(-c2ccco2)n1)c1ccccc1 [CBK037613] | 88.4037 |
| CC(C)C(CNCc1ccsc1)c1ccnn1C (centres unmarked) [CBK304821] | 98.7211 |
| OC1(C2CNc3ccccc3C2)CCNCC1 (centres unmarked) [CBK283847] | 69.9592 |
| CCOC(=O)C1CCN(C(=O)Cn2cnc3ccc(Br)cc3c2=O)CC1 [CBK306070] | 76.011 |
| CCn1cc(CN2CCCN(C(=O)c3cccn(C)c3=O)CC2)cn1 [CBK305375] | 44.1196 |
| COc1ccc([N+](=O)[O-])cc1NC(=O)c1cc(Cl)c(OC)c(Cl)c1 [CBK268594] | 98.4774 |
| COc1ccc(Cc2nnc(Nc3ccc(OC)cc3)[nH]c2=O)cc1 [CBK287385] | 91.4917 |
| CNCCOc1ccccc1O [CBK023215C] | 92.6903 |
| CN(CC1(C)COC1)C(=O)CCc1nc2ccccc2[nH]1 [CBK281719] | 80.6564 |
| O=C(O)CC(C(=O)O)N1C(=O)/C(=C\C(Cl)=C/c2ccc([N+](=O)[O-])cc2)SC1=S (centres unmarked) [CBK261013] | 105.732 |
| O=C(CN1CCCC(c2cccc(Cc3ccc(F)cc3)n2)C1)Nc1nccs1 (centres unmarked) [CBK286503] | 76.5049 |

From article PMC12040169 (PLOS Biology, 2025)
